{"source": "PubChem BioAssay AID588342", "about": "(National Center for Advancing Translational Sciences (NCATS), 2011)", "note": "The whole screen tested about 360,000 compounds, of which about 25,000 (6.9%) were called active. The shares of active, inactive and inconclusive entries below differ from those in the screen. Calls follow the shape of the dose curve; as a rule, active = well fitted inhibition curve with a large enough effect; inconclusive = small, poorly fitted or top-dose-only effect; inactive = flat fitted curve, though single readings scatter. A potency beside an inconclusive call is a rough fit, not a confirmed value. Potency is read from the fitted curve at half-maximal effect; tags tell the direction and shape of the fitted curve."}
{"molecular_target": "Luciferin 4-monooxygenase (Photinus pyralis) (UniProt P08659)", "sequence (P08659 whole entry, looked up)": "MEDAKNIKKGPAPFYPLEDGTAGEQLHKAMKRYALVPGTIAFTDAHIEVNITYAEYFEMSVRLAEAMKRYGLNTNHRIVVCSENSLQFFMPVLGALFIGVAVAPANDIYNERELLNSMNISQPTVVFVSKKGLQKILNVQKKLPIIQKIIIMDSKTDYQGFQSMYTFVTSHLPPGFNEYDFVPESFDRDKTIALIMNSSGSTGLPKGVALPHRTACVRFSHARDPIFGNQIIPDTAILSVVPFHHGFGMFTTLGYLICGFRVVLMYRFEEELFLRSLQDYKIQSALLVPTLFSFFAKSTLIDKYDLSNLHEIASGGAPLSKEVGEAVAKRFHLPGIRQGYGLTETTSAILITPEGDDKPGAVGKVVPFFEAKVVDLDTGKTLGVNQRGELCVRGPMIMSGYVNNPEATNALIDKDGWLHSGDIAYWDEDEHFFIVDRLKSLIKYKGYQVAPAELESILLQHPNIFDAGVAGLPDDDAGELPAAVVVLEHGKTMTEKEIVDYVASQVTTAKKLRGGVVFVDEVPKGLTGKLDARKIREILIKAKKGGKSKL", "assay": "qHTS profiling assay for firefly luciferase inhibitor/activator using purifed enzyme and Km concentrations of substrates (counterscreen for miR-21 project); also: nearly all actives have a fitted effect of over 55% in size;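 as to activity change, negative = inhibition: plate controls were vehicle for no effect and reference inhibitor for full effect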", "details": "purified FLuc, luminescence inhibition; activity change, negative = inhibition: at 57.5 µM (top of the series)", "procedure,_shortened": "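Biochemical qHTS of compounds, final roughly 60 µM downward over six points, against 10 nM purified firefly luciferase using Km concentrations of substrates (10 uM D-luciferin, 10 uM ATP) in Tris acetate pH 7.5 buffer; luminescence output.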"}
{"molecule": "O=C1CCCN1CCCn1cnc2c([nH]c3ccc(F)cc32)c1=O", "Potency": "inconclusive: 33.8 µM [inhibitor, partial curve, poor fit]"}
{"molecule": "CCc1ccccc1NC(=O)c1cc(-c2cccs2)on1", "Potency": "inconclusive: 23.9 µM [inhibitor, partial curve]"}
{"molecule": "Cn1c(N)c(C(=O)COC(=O)COc2ccc(Cl)cc2)c(=O)n(C)c1=O", "activity change, negative = inhibition": "inactive: 0.687%"}
{"molecule": "COc1ccc(Nc2ncnc3c2c(C)c(C)n3CCCN(C)C)cc1", "Potency": "inconclusive: 26.9 µM [inhibitor, single point]"}
{"molecule": "O=C(O)c1ccc(OCCCCCCOC2CCCCO2)cc1", "note": "(stereo unspecified)", "activity change, negative = inhibition": "inactive: 3.25%"}
{"molecule": "Cc1cccc(N2CCN(C(c3ccccc3)c3nnc(-c4ccccc4Cl)o3)CC2)c1C", "note": "(stereo unspecified)", "Potency": "inconclusive: 15.1 µM [inhibitor, partial curve]"}
{"molecule": "C=CC[n+]1ccc(/C=C2\\C=Cc3cc(C)ccc3N2CC)c2ccccc21", "Potency": "inconclusive: 26.9 µM [inhibitor, single point]"}
{"molecule": "O=C(O)c1cc(NN=Nc2ccc(Br)cc2)cc([N+](=O)[O-])c1", "Potency": "inconclusive: 26.9 µM [inhibitor, partial curve, poor fit]"}
{"molecule": "O=C(Nc1ccc(N2CCCCC2)cc1)C1CCCN1S(=O)(=O)c1ccc(F)cc1", "note": "(stereo unspecified)", "Potency": "inconclusive: 33.8 µM [inhibitor, single point]"}
{"molecule": "C/C(=N\\OCC(=O)Nc1ccc(Br)cc1)c1cccs1", "Potency": "inconclusive: 30.1 µM [inhibitor, partial curve, poor fit]"}
{"molecule": "O=C(Nc1cccc(F)c1F)C1CCN(c2ncccn2)CC1", "activity change, negative = inhibition": "inactive: 6.36%"}
{"molecule": "CC(=O)N1CCC2(CC1)C/C(=N\\NC(=S)Nc1ccccc1F)c1cc(O)ccc1O2", "Potency": "inconclusive: 37.9 µM [inhibitor, single point]"}
{"molecule": "CSc1cccc(NC(=O)Cn2ncn3c(cc4ccccc43)c2=O)c1", "activity change, negative = inhibition": "inactive: -13.7%"}
{"molecule": "CCNC(=O)COC(=O)c1cc(C)n(-c2ccccc2)c1C", "Potency": "inconclusive: 23.9 µM [inhibitor, single point]"}
{"molecule": "CCc1nnc(NC(=O)c2cc(Cl)ccn2)s1", "Potency": "active: 15.1 µM"}
{"molecule": "O=C(O)c1ccc(S(=O)(=O)c2ccc3c(c2)C(=O)N(NC(=O)c2ccc(O)cc2)C3=O)cc1", "Potency": "inconclusive: 15.1 µM [inhibitor, partial curve]"}
{"molecule": "O=C(/C=C/c1ccccc1)N1CCN(c2ccccn2)CC1", "Potency": "inconclusive: 23.9 µM [inhibitor, partial curve]"}
{"molecule": "C=CCNc1nc(Nc2ccccc2F)nc(OCC)n1", "Potency": "active: 21.3 µM"}
{"molecule": "CCOc1cc(CNn2cn[nH]c2=S)cc(Cl)c1OCc1ccccc1F", "activity change, negative = inhibition": "inactive: 1.38%"}
{"molecule": "O=C(CSc1ncccc1-c1nc2ccccc2[nH]1)NCc1ccco1", "Potency": "active: 23.9 µM"}
{"molecule": "O=C(CC(=O)c1ccccc1O)c1ccc(F)cc1", "Potency": "inconclusive: 19 µM [inhibitor, partial curve]"}
{"molecule": "CCOc1cccc(-c2nnc3sc(-c4cc(OC)c(OC)c(OC)c4)nn23)c1", "activity change, negative = inhibition": "inactive: 3.61%"}
{"molecule": "COc1ccc(N=Nc2ccc(O)c3ncccc23)cc1", "activity change, negative = inhibition": "inactive: -14%"}
{"molecule": "COC(=O)c1c(NC(=O)CC2Sc3ccc(C(F)(F)F)cc3NC2=O)sc(C)c1C", "note": "(stereo unspecified)", "activity change, negative = inhibition": "inactive: 1.85%"}
{"molecule": "CCOc1ccc(C(=O)/C=C/Nc2ccc(S(=O)(=O)Nc3cc(C)nc(C)n3)cc2)cc1", "Potency": "inconclusive: 6.01 µM [inhibitor, partial curve]"}
{"molecule": "Fc1ccc(-c2cn3cc(Cc4ccccc4)sc3n2)cc1", "Potency": "active: 0.12 µM"}
{"molecule": "Cc1cc(C(=O)NCc2csc(-c3ccccc3)n2)no1", "Potency": "inconclusive: 37.9 µM [inhibitor, single point]"}
{"molecule": "Cc1ccc(C(=O)NCc2ccccc2)c(F)c1F", "Potency": "inconclusive: 33.8 µM [inhibitor, partial curve, poor fit]"}
{"molecule": "CCc1ccc2oc(-c3cc(NC(=O)c4cc([N+](=O)[O-])ccc4N4CCOCC4)ccc3Cl)nc2c1", "Potency": "inconclusive: 12 µM [inhibitor, partial curve]"}
{"molecule": "COc1ccc(NC(=O)c2cccc(NC(=O)C3C4CC5OC(=O)C3C5C4)c2)c(OC)c1", "note": "(stereo unspecified)", "Potency": "inconclusive: 21.3 µM [inhibitor, partial curve, poor fit]"}
{"molecule": "O=C(Nc1ccc2c(c1)OCO2)c1ccc(Cl)cc1Cl", "activity change, negative = inhibition": "inactive: -1.91%"}
{"molecule": "CN(c1ccc(C(=O)Nc2ccc3c(c2)OCCO3)cc1)S(C)(=O)=O", "Potency": "active: 7.57 µM"}
{"molecule": "CCOC(=O)c1cc(-c2ccncc2)nc2c1c(C)nn2-c1ccccn1", "activity change, negative = inhibition": "inactive: -4.84%"}
{"molecule": "O=C1/C(=C\\Nc2ccc(OC(F)(F)F)cc2)CCN1c1ncccn1", "Potency": "inconclusive: 10.7 µM [inhibitor, partial curve]"}
{"molecule": "O=C(/C=C/c1ccccc1)Nc1ccc(Br)cn1", "Potency": "inconclusive: 4.78 µM [inhibitor, full curve]"}
{"molecule": "COc1cccc2cc(C(=O)NCC3CCCO3)c(=O)oc12", "note": "(stereo unspecified)", "Potency": "inconclusive: 26.9 µM [inhibitor, partial curve, poor fit]"}
{"molecule": "CN(C)S(=O)(=O)c1ccc(C(=O)NCCc2ccco2)cc1", "Potency": "inconclusive: 30.1 µM [inhibitor, single point]"}
{"molecule": "Cc1ccccc1-c1cc2nc(C)c(C)c(=O)n2[nH]1", "Potency": "active: 19 µM"}
{"molecule": "Cc1ccc(C)c(NC(=O)CCc2c(C)nn(-c3ccc(N4CCCCC4)nn3)c2C)c1", "Potency": "inconclusive: 23.9 µM [inhibitor, single point]"}
{"molecule": "COc1ccc(CC(=O)N/N=C/c2ccc(-c3cccc(C(=O)O)c3)o2)cc1OC", "Potency": "inconclusive: 23.9 µM [inhibitor, single point]"}
{"molecule": "Cc1oc(-c2cccc(Cl)c2)nc1Cn1c(SCc2ccccc2F)nc2ccncc21", "Potency": "inconclusive: 19 µM [inhibitor, partial curve]"}
{"molecule": "O=C(CCSc1ccccn1)c1ccccc1", "Potency": "active: 6.01 µM"}
{"molecule": "Cc1ccc(C(=O)Nc2ccc(C(=O)N3CCCCC3)cc2)cc1", "Potency": "inconclusive: 37.9 µM [inhibitor, partial curve, poor fit]"}
{"molecule": "O=C(CSCc1c(Cl)cccc1Cl)Nc1ccc2c(c1)OCO2", "Potency": "inconclusive: 23.9 µM [inhibitor, single point]"}
{"molecule": "CC(=O)c1cccc(NC(=O)CCC2CCCC2)c1", "Potency": "inconclusive: 16.9 µM [inhibitor, partial curve]"}
{"molecule": "O=C(Nc1ccc(NC(=O)c2cccs2)c(Cl)c1)c1ccco1", "Potency": "inconclusive: 26.9 µM [inhibitor, partial curve, poor fit]"}
{"molecule": "COc1ccc(OCC(=O)O/N=C(\\N)Cc2ccc(Cl)cc2Cl)cc1", "Potency": "inconclusive: 37.9 µM [inhibitor, partial curve, poor fit]"}
{"molecule": "CCOC(=O)c1c(C)[nH]c(C(=O)C(C)Sc2ccc(Cl)cc2)c1C", "note": "(stereo unspecified)", "Potency": "active: 26.9 µM"}
{"molecule": "CCOc1ccc(NC(=S)NC(=O)/C=C/c2ccc(C)cc2)c([N+](=O)[O-])c1", "Potency": "inconclusive: 13.5 µM [inhibitor, partial curve]"}
{"molecule": "N#C/C(=C\\C1CC2C=CC1C2)c1nc2ccccc2[nH]1", "note": "(stereo unspecified)", "Potency": "inconclusive: 6.75 µM [inhibitor, full curve]"}
{"molecule": "CCCc1ccc(/C=C2\\C(=O)c3ccccc3C(O)=C2C(=O)OCC)cc1", "Potency": "active: 3.38 µM"}
{"molecule": "Cn1c2ccccc2c2nnc(SCC(=O)Nc3cccc(C(=O)O)c3)nc21", "Potency": "inconclusive: 26.9 µM [inhibitor, partial curve, poor fit]"}
{"molecule": "Cn1c(CSc2nc3ccc(Br)cc3[nH]2)nc2ccccc21", "Potency": "inconclusive: 26.9 µM [inhibitor, single point]"}
{"molecule": "Fc1ccc(NC(=S)N2CCN(c3ncccn3)CC2)cc1", "activity change, negative = inhibition": "inactive: -1.67%"}
{"molecule": "COc1ccc(Cn2nnc3c(=O)[nH]c(C4CCN(C(=O)c5ccc(C)cc5)CC4)nc32)cc1OC", "activity change, negative = inhibition": "inactive: -2.17%"}
{"molecule": "COc1ccc(/C=N/NC(=O)c2cc3c(ccc4ccccc43)o2)cc1OC", "Potency": "active: 10.7 µM"}
{"molecule": "C=CCn1c(SCc2nc3sc(C(=O)O)c(C)c3c(=O)[nH]2)nnc1-c1ccc(C(C)(C)C)cc1", "Potency": "inconclusive: 30.1 µM [inhibitor, single point]"}
{"molecule": "Cc1sc2nc(CN3CCC(C)CC3)nc(Cl)c2c1C", "Potency": "inconclusive: 21.3 µM [inhibitor, partial curve, poor fit]"}
{"molecule": "Cc1cc(C(=O)CSc2nnc(-c3cccnc3)n2-c2ccccc2F)c(C)n1CC1CCCO1", "note": "(stereo unspecified)", "Potency": "inconclusive: 37.9 µM [inhibitor, partial curve, poor fit]"}
{"molecule": "O=C(CSc1ccc2nc(-c3ccccc3)cn2n1)Nc1cccc(F)c1", "Potency": "active: 7.57 µM"}
{"molecule": "CC(NC(=O)c1ccc(F)cc1Cl)C1CC2CCC1C2", "note": "(stereo unspecified)", "activity change, negative = inhibition": "inactive: -3.27%"}
{"molecule": "Oc1ccccc1-c1nnc(-c2ccc(C(F)(F)F)cc2)o1", "Potency": "inconclusive: 4.78 µM [inhibitor, full curve]"}
{"molecule": "CCN(CC)c1ccc(/C=N/NC(=O)Nc2nonc2N)cc1", "Potency": "active: 13.5 µM"}
{"molecule": "O=C(COc1ccccc1)Nc1ccncc1Cl", "Potency": "inconclusive: 21.3 µM [inhibitor, single point]"}
{"molecule": "CCC(=O)Oc1ccc(C(=O)Nc2cccc(NC(=O)c3ccco3)c2)cc1", "Potency": "inconclusive: 8.49 µM [inhibitor, partial curve]"}
{"molecule": "CC(=O)c1ccc(NC(=O)c2noc3c2CCc2ccccc2-3)cc1", "activity change, negative = inhibition": "inactive: -9.42%"}
{"molecule": "COc1ccccc1-c1sc2ccccc2c1-c1ccc2c(c1)OCCO2", "Potency": "inconclusive: 26.9 µM [inhibitor, partial curve, poor fit]"}
{"molecule": "CCN1CCN(C(=O)C2CCC(CNS(=O)(=O)c3ccccc3)CC2)CC1", "note": "(stereo unspecified)", "activity change, negative = inhibition": "inactive: 1.83%"}
{"molecule": "CC(/C=N/NC(=O)c1sc(N)nc1C)=C\\c1ccccc1", "Potency": "inconclusive: 1.51 µM [inhibitor, full curve, poor fit]"}
{"molecule": "CN(Cc1cccc(-n2cccn2)c1)C(=O)CCc1nnc(C2CCCCC2)o1", "Potency": "active: 16.9 µM"}
{"molecule": "Cc1ccc(-n2[nH]c(C)c(/C=N/NC(=O)c3ccc(O)cc3O)c2=O)cc1", "Potency": "active: 0.426 µM"}
